Laboratory results from ChEMBL document CHEMBL1201862, “PubChem BioAssay data set” (2004).

What follows are compounds tested on NCI-H322M (assay: NCI-60 cell line screen, 48 h).

Compound	GI50
O=C(O)CCC(NC(=O)c1ccccc1)C(=O)O (stereo unspecified)	inactive: > 100 µM
O=NN(CCF)C(=O)NC1CC2CCC1C2 (stereo unspecified)	inactive: > 100 µM
CCCCCCCCCCCCCCC(O)C[N+](C)(CCO)CCO (stereo unspecified)	inactive: 15.1 µM
NC(=S)N/N=C/C(O[C@@H](/C=N/NC(N)=S)CO)n1cnc2c(N)ncnc21 (stereo partly specified)	inactive: > 75.3 µM
FC(F)(F)c1cc(Cl)cnc1N/N=C(/c1ccccc1)c1ccccn1	inactive: 2.95 µM
CN(C)CCNC(=O)c1cc(Cl)cc2cc3ccccc3nc12	inactive: 1.13 µM
COc1ccc2c(c1)C1C(CO2)C(c2ccccc2)=NN1c1ccccc1 (stereo unspecified)	inactive: > 100 µM
Cn1c2cccc3nnc4cccc(c4c32)n1C	inactive: > 100 µM
COc1ccc(Cc2c(=O)[nH]nc3ccccc23)cc1	inactive: > 100 µM
COc1cc2nc(-c3cccs3)nc(N3C(c4ccc(O)cc4)=NNC(=O)c4ccccc43)c2cc1OC	inactive: 53.6 µM
CC(=O)Nc1ccc2nncnc2c1	inactive: > 100 µM
N#CC1(C#N)[C@@H]2CCC=C(Sc3ccccc3)[C@@H]21	inactive: 18.5 µM
Nc1ccccc1OCc1cc(=O)c(OCc2ccccc2)co1	inactive: 74.6 µM
COc1ccc(/C=N/n2c(-c3ccccc3)n[nH]c2=O)c(OC)c1	inactive: 66.5 µM
CC(=O)Oc1cc(OC(C)=O)c2cc3c(cc2c1OC(C)=O)C(=O)C1(CCCC1)C3=O	inactive: 17.1 µM
COc1ccc(S(=O)(=O)NNS(C)(=O)=O)cc1OC	inactive: > 100 µM
Cc1ccc(O)c(-c2cscn2)c1	inactive: 48.5 µM
CCCCN1C=CN2c3nc4cc(C)c(C)cc4n3C(C(=O)OC)=C(C(=O)OC)C12 (stereo unspecified)	inactive: > 100 µM
CN(C)C(=N)/N=C(\N)Nc1cccc(Cl)c1	inactive: > 100 µM
CCN=C=NCCCN(C)C	inactive: > 100 µM
C=C1CC2(CCOc3ccc(Cl)cc32)OC1=O (stereo unspecified)	inactive: 11.1 µM
CCOc1cc(CC[N+](C)(C)C)c2c(ccc3ccc(OC)c(OC)c32)c1OC	inactive: > 100 µM
C=C1CC(O)C2C(=C)C(=O)OC2C2C(C)C(=O)CC12 (stereo unspecified)	inactive: 64.4 µM

Compound	GI50
Cc1ccc(NCCN(C)C)c2c(=O)c3cc(O)ccc3sc12	inactive: 6.64 µM
Cc1cc2c3c(nc4ccccc42)C(=O)c2ccccc2-c3n1	inactive: 2.18 µM
Cc1ccc(-[n+]2cc([O-])on2)cc1	inactive: > 100 µM
[N-]=[N+]=C(C(=O)OCC#CCOC(=O)C(=[N+]=[N-])S(=O)(=O)c1ccccc1)S(=O)(=O)c1ccccc1	inactive: > 10 µM
Cc1cc(OC(=O)Nc2ccc(Cl)cc2)ccc1C(=S)Nc1ccccc1	inactive: > 100 µM
CC(C)NC(=O)OCc1c(COC(=O)NC(C)C)c(-c2ccc[n+](COC(=O)CC(C)(C)C)c2)n2c1CCC2	inactive: > 100 µM
CCOC(=O)C1CCCCN1C(=O)Cc1c[nH]c2ccccc12 (stereo unspecified)	inactive: > 100 µM
CC1=NN(c2cccc(Cl)c2)C(=N/c2nc3ccccc3s2)/C1=C\c1cccs1	inactive: 45.9 µM
O=C(O)CN1CCN2CCCCCCCCN(CC1)CCN(CC(=O)O)CC2	inactive: > 100 µM
O=c1[nH]c(=O)c2c3n(cc2[nH]1)CCCCC3	inactive: > 100 µM
CN(C)CCNC(=O)c1cc(Cl)cc2ccc(-c3ccccc3)nc12	inactive: 3.67 µM
COc1ccc2cc(-c3nc(N)nc(N4N=C(C)CC4(C)C)n3)c(=N)oc2c1	inactive: 20.7 µM
CN(/N=C/c1ccccn1)C1=NCCCN1	inactive: > 100 µM
CC/C=C/c1cc2c(c3[nH]ccc13)[C@@H](C)CC2C.CC/C=C/c1cc2cc[nH]c2c2c1C(C)C[C@@H]2C.CCc1cc2c(c3[nH]ccc13)[C@@H](C)CC2C (stereo partly specified)	inactive: 18.3 µM
CN1CCN(c2cc3[nH]c(-c4ccc(Cl)cc4)nc3cc2F)CC1	inactive: 15.9 µM
COc1ccc(C(=O)O)c2c(=O)c3cccnc3[nH]c12	inactive: > 100 µM
O=C1Oc2cc3c(c4cccc1c24)OCN(c1ccccc1)C3	inactive: > 100 µM
CC(NC(C#N)CC12CC3CC(CC(C3)C1)C2)c1ccccc1 (stereo unspecified)	inactive: > 100 µM
COc1c(C)n(CCO)ccc1=O	inactive: > 100 µM
COc1ccc(CC2C(=O)NC(C)C(=O)N(C)C3C(=O)N(C)C(Cc4ccc(O)c(c4)Oc4ccc(cc4)C3O)C(=O)NC(C)C(=O)NC(C)C(=O)N2C)cc1.COc1ccc(CC2C(=O)NC(C)C(=O)N(C)C3Cc4ccc(cc4)Oc4cc(ccc4O)CC(C(=O)NC(C)C(=O)NC(C)C(=O)N2C)N(C)C3=O)cc1 (stereo unspecified)	active: 0.00524 µM
O=C1NN=C2C=C(c3ccc(Cl)cc3)CC(c3cccc(Cl)c3)C12 (stereo unspecified)	inactive: 28.6 µM
CC(=O)NC1C(OCc2ccccc2)OC(CO)C(O)C1OCC(=O)NC(C)C(=O)NC(CCC(=O)OCCNC(=O)c1cccc2cc3ccccc3nc12)C(N)=O (stereo unspecified)	inactive: 20.7 µM
COC1=C(OC)C(=O)C(Cc2c(Cl)nc3sccn23)=C(C)C1=O	inactive: 15.7 µM

Compound	GI50
CC(=O)N1C(Nc2cccc3nc(C)ccc23)CCN1c1ccccc1 (stereo unspecified)	inactive: > 10 µM
COc1ccccc1NC(=O)c1nc2ccc([N+](=O)[O-])cc2nc1C	inactive: > 100 µM
Cn1c(=O)c2c(nc3n(Cc4ccccc4)c(=O)c(NCCCBr)cn23)n(C)c1=O	inactive: > 100 µM
COc1cccc2c1CCc1sc(CN3CCN(C)CC3)nc1-2	inactive: > 100 µM
BrC12c3ccccc3Sc3ccccc3C1(Br)c1ccccc12 (stereo unspecified)	inactive: 36.1 µM
COC(=O)/C=C/c1cc(O)c2c(c1)[C@H](C(=O)OC)[C@@H](c1ccc(O)c(O)c1)O2	inactive: 7.96 µM
COC(=O)[C@@H](NC(=O)N(Cc1ccccc1)C[C@H](CC(C)C)NC(=O)[C@@H](NC(=O)OC(C)(C)C)C(C)C)C(C)C	inactive: > 100 µM
CCOP(=O)(OCC)C(Nc1ccc(Br)cc1)c1cccc([N+](=O)[O-])c1 (stereo unspecified)	inactive: 20.9 µM
CC1(C)CC2(C)CC1CC2(O)c1ccccc1 (stereo unspecified)	inactive: > 100 µM
CNc1nc(C(N)=O)c(N)s1	inactive: > 100 µM
O=C1[C@H](c2ccccc2)C2c3ccccc3CCN12 (stereo partly specified)	inactive: > 10 µM
COC(=O)C(=O)C(CC(=O)Nc1cc(Cl)ccc1Cl)C(=O)OC (stereo unspecified)	inactive: > 100 µM
C=C1C(=O)OC2/C=C(/C)C3CC(O)C(C)(CC(OC(=O)/C(C)=C/C)C12)O3 (stereo unspecified)	inactive: 13.2 µM
Cc1nn(-c2ccccc2)c2nc(N3CCOCC3)nnc12	inactive: 63.1 µM
C=C(Cl)C(=C)CCC(Cl)C(C)C (stereo unspecified)	inactive: > 100 µM
C=C1C(=O)O[C@H]2C1C[C@@H](OC(C)=O)/C(C)=C/CC[C@@]1(C)O[C@H]21 (stereo partly specified)	inactive: 19.8 µM
CCCCCCCc1cc(OC(=O)c2c(C)cc(OC)cc2O)cc(O)c1C(=O)O	inactive: 18.1 µM
Cc1ccc(/C=N/Nc2ccc3ccccc3n2)s1	inactive: 14.6 µM
CC1CC2C(=O)NC(=O)C2c2[nH]c3ccccc3c21 (stereo unspecified)	inactive: > 100 µM
CC(C)C1(O)C(c2ccccc2)=C(c2ccccc2)C(c2ccccc2)=C1c1ccccc1	inactive: 5.56 µM
Cn1c2c(c3c(=O)[nH]ncc31)CCCc1ccccc1-2	inactive: 64.9 µM
Cc1ccsc1/C=N/Nc1ncccn1	inactive: > 100 µM
CC(C)N1[C@@H]2CCCC[C@H]2N(C(C)C)P1(=O)C(=O)/C=C/c1ccccc1	inactive: 3.38 µM

Compound	GI50
COc1ccc(CN(O)C2C(CO)OC(n3cc(I)c(=O)[nH]c3=O)C2O)cc1 (stereo unspecified)	inactive: > 100 µM
CCSc1c2ccccc2c(-c2nc(F)nc(F)n2)n1CCc1ccccc1	inactive: > 100 µM
COc1cc2c(cc1OC)-c1cc3ccccc3c(=O)n1CC2	inactive: 33.7 µM
COc1ccc(C2NC(N)=C(C#N)C3=C2C(C)CCC3)cc1OC (stereo unspecified)	inactive: 88.9 µM
N#Cc1ccc(C2ON=C(c3ccccc3)N2C23CC4CC(CC(C4)C2)C3)cc1 (stereo unspecified)	inactive: > 10 µM
CN1CCCOC(c2ccc(Cl)cc2)O1 (stereo unspecified)	inactive: > 100 µM
CCN(CC(COc1ccc2c(c1)[n+]([O-])nc(N)[n+]2[O-])OC(C)=O)C(C)=O (stereo unspecified)	inactive: 80.7 µM
COC(=O)C(=O)CC(=O)c1cccc(OC)c1	inactive: > 100 µM
COc1ccc(CC2C3=C(CCCC3)CCN2C)cc1 (stereo unspecified)	inactive: > 100 µM
N=C(N)N/N=C/c1c(-c2ccccc2)nc2ccn3c(/C=N/N=C(N)N)c(-c4ccccc4)nc3n12	inactive: 22 µM
N#CCCN(CCC#N)c1ccc(C(Sc2ccccc2)C(NC(=O)c2cc([N+](=O)[O-])ccc2Cl)C(=O)Sc2ccccc2)cc1 (stereo unspecified)	inactive: 9.59 µM
COc1nc(C(=O)NNC(=O)c2nc(OC)c3ccccc3c2-c2ccccc2)c(-c2ccccc2)c2ccccc12	inactive: > 100 µM
COC(=O)C(=O)C(C(=O)C(=O)Nc1ccc(C)c(C)c1)c1nc2ccc([N+](=O)[O-])cc2nc1O (stereo unspecified)	inactive: > 100 µM
OC1CCCCCCCCCCC1[S+]1CCCC1.O[B-](F)(F)F (stereo unspecified)	inactive: > 100 µM
O=C1C=CC2(O)OCC3C=C4O[C@@H]5OC6(CCCCC6)O[C@@H]5C4[C@@H]2[C@@H]13 (stereo partly specified)	inactive: > 100 µM
COC(=O)[C@@H]1C(=O)O[C@@H](c2cc(OC)c(OC)cc2OC)[C@@H]1C(=O)OC.COC(=O)[C@H]1C(=O)O[C@@H](c2cc(OC)c(OC)cc2OC)[C@@H]1C(=O)OC	inactive: > 100 µM
CC1(C)O[C@@H]2COC(=O)[C@@H]2O1	inactive: > 100 µM
C[n+]1c(-c2ccc(/C=C/C=N\NC(=O)c3ccc(C(=O)N/N=C\C=C\c4ccc(-c5cn6ccccc6[n+]5C)cc4)cc3)cc2)cn2ccccc21	inactive: > 64.6 µM
COC(=O)CCC(C)[C@H]1CCC2C3C(C[C@H](OC(C)=O)[C@@]21C)[C@@]1(C)CCC2(C[C@H]1C[C@H]3OC(C)=O)OOC1(CCCCCCC1)OO2 (stereo partly specified)	inactive: 47.2 µM
Cc1cc(S(=O)(=O)Nc2nc3ccccc3nc2-c2ccc(Cl)cc2)c(S)cc1Cl	inactive: 17.3 µM
CCCCc1c2c(c(C)c3c1C(=O)OC3)Oc1ccccc1O2	active: 0.935 µM
COc1cc(Cn2c3ccccc3c3cc(C)cc(OC)c32)cc2c1[nH]c1ccccc12	inactive: > 25 µM

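Cells were grown in 96-well plates and exposed to each compound for 48 hours at five concentrations; endpoints were interpolated linearly between bracketing concentrations, or set to the highest concentration if not reached. At the GI50, growth is halved.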 Calls of active or inactive are those of the source. Rule as the data show it: active = GI50 up to about 1.1 µM and inactive = higher.
